Assay [1] addresses T1, LX6960073_G82bS_gl IgG1-TM.
T1 construct: Whole human IgG1-TM, germlined, with heavy chain G82bS (Kabat); also called LOX10696_73
In words: competition ELISA: soluble LOX1 titrated against LX6960073_G82bS_gl IgG1-TM (12.5 ng/mL) binding to coated biotinylated human LOX1.

Assay [2] concerns the target T2, LX5140110 IgG1-TM.
T2 construct: Whole human IgG1-TM (L234F/L235E/P331S); also called LOX514110; LOX514_110
In words: competition ELISA: soluble LOX1 titrated against LX5140110 IgG1-TM (12.5 ng/mL) binding to coated biotinylated human LOX1.

The values below come from US20210347900A1 (AstraZeneca / MedImmune, published 2021).

T2 sequence (VH, as listed by the source, chain 1 of 2): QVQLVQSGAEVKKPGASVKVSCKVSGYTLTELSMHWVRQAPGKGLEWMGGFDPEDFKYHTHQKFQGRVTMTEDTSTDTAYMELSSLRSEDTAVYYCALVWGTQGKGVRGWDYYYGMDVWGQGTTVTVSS
T2 sequence (VL, as listed by the source, chain 2 of 2): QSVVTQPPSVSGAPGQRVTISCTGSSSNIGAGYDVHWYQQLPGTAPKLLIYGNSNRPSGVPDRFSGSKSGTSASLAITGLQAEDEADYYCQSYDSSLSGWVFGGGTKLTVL
T1 sequence (VH, as listed by the source, chain 1 of 2): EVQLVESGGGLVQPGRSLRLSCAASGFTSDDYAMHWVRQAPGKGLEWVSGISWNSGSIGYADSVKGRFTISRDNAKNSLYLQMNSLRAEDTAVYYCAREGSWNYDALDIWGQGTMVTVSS
T1 sequence (VL, as listed by the source, chain 2 of 2): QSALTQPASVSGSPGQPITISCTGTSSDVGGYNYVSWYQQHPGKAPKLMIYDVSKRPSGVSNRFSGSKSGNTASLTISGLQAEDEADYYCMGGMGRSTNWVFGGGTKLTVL

B1: cynomolgus LOX1-(FlagHis) extracellular domain (receptor, not shown: small tags and cut ends)
chain: not shown
notes: extracellular domain; Made in HEK293 EBNA cells; also called cynoLOX1; cyLOX
A word on the IC50: it is the concentration that inhibits the measured activity by half. As for B1, the IC50 in assay [1] came to 1.8 nM; in assay [2] it was 44 nM.
